Read counts are not given, so values of variants with three or more changes are uncertain.
B1: CPEB3 Ribozyme (parent)
chain: UAACAGGGGGCCACAGCAGAAGCGUUCACGUCGCAGCCCCUGUCAGAUUCUGGUGAAUCUGCGAAUUCUGCUGUAUAUCUC

Variants of: B1
Experiment: self-cleavage, relative activity (ratio to wild type); higher = more cleavage; in vitro, sequencing
Summary of the method: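 CPEB3 self-cleaving ribozyme mutant libraries were made by rounds of error-prone PCR, barcoded, and transcribed in vitro with T7 RNA polymerase for 5 hours at 37°C. Cleavage occurred during transcription and a 15 min DNase I step before EDTA stop. RNAs were reverse transcribed with template switching and Illumina-sequenced, with DNA sequencing mapping barcodes to variants. Relative activity is the variant's cleaved/total read fraction divided by wild type's (minimum 5 reads), averaged across three batches.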

Question: For UAACUGGGGGCCACUACAGAAGCGUACACGUCGCAGCCCCUGUCAGAUUCUGGAGAAUCUGCGAGUUCUGCUGUAUGUCUC, which self-cleavage is on record?
Answer: The self-cleavage was 0.13.

Question: Which self-cleavage does the source give for UAACUGGGGGCCACUGCAGGAGCGCUCACGUCGCAGCCCCUGUCUGAUUCUGGUGUAUCUGCGAAUUCUGCUGUAUAUCUC here?
Answer: The self-cleavage was 0.28.

Question: Which self-cleavage does the source give for UAACUGGGGGCCACGGCAGAAGCGUUCACGUCGCAGCCCCUGUCGGAUUCUGGUGAAUCUGCGAAUUCUGCUGUAUUUCUC here?
Answer: The self-cleavage was 0.79.

Question: Which self-cleavage does the source give for UAACUGGGGGCCGCAGCAGAAGCGUUCACGUCGCAGCCCCAGUCAGAUUCUGGUGAAUCUGCGAAUUCUGCUGUAUAUCUC here?
Answer: The self-cleavage was 0.18.

Question: Which self-cleavage does the source give for UAACUGGGGGCCUCAGCAGAAGCGUUCACGUCGCAGCCCCUGUCAGGUUCAGGUGAAUCUGCGAAUUCUGCUGUAUAUCUC here?
Answer: Its self-cleavage is 0.99.

Question: For UAACUGGGGGCCUCAGCGGAAGCGUUCACGUCGCGGCCCCUGUCGGAUUCUGGUGAAUCCGCGAAUUCUGCUGUAUAUCUC, which self-cleavage is on record?
Answer: Its self-cleavage is 1.16.

Question: Which self-cleavage does the source give for UAACUGGGGGCCACAGCGGACGCGUUCACGUCGCAGCCCCUGUCAGAUUCUGGUGAAUAUGCGAAUUCUGCUGUAUACCUC here?
Answer: The self-cleavage was 0.07.

Question: With UAACUGGGGGCCUCAGCUGAAGCGUUCACGUCGCAGCCCCUGUCAGAUUCUGGUGAAUCUGCGAGUUCAGCUGUAUAUCUC as the variant, how does the self-cleavage read?
Answer: Its self-cleavage is 1.07.

Question: Which self-cleavage does the source give for UAACUGGGGGCCACGGCAGAAGCGUUCACGUCGCAGCCCCUGCCAGAUUCUGGUUAAUCUGCGAAUUCUGCUGUAUAUCUC here?
Answer: Its self-cleavage is 0.58.

Question: For UAACUGGGGGCCACGGCAGAAGCGUUCACGUCGCAGUCCCUGUCAGAUUCUGGUGAAUCUGCGAAUUCUGCUGUAUACCUC, which self-cleavage is on record?
Answer: The self-cleavage was 0.56.

Question: Which self-cleavage does the source give for UAACUGGGGGCCUCAGCAGAAGUGUUCACGUCGCAGCCCCUGUCAGAUUCUGGUGAAUCUGCGAAUUCUGCUGUAUAUCUC here?
Answer: Its self-cleavage is 0.47.

Question: Which self-cleavage does the source give for UAACUGGGGGCCACUGCAGAAGCGUCCACGUCGCAGCACCUGUCGGAUUCUGGCGUAUCUGCGAAUUCUGCUGUAUAUCUC here?
Answer: The self-cleavage was 0.05.

Question: With UAACUGGGGGCCUCAGCAGAAGCGUUCACGUCGCAGCCCCUGUCAGAUUCUGCUGAGUCUGCGAAUUCUGCUGUAUAUCUC as the variant, how does the self-cleavage read?
Answer: Its self-cleavage is 0.47.

Question: With UAACUGGGGGCCGCAGCAGAAGCGUUCACGUCGCAGCCCCUGUCAGAUUCUGGUGAAUCUGCGAAUUCUGCUGUAUACCUC as the variant, how does the self-cleavage read?
Answer: Its self-cleavage is 0.92.

Question: With UAACUGGGGGCCACGGCAGAAGCGUUCACGUCGCGGCCCCAGUCAGAUUCUGGUGAAUCAGCGAAUUCUGCUGUAUAUCUC as the variant, how does the self-cleavage read?
Answer: Its self-cleavage is 0.09.

Question: Which self-cleavage does the source give for UAACUGGGGGCCACUGCAGAAGCGUACACGUCGCAGCCCCUGUCAGAUUCUGGUGAAUCUGCGAAUUCAGCUGUAUAUCUC here?
Answer: The self-cleavage was 0.33.

Question: With UAACUGGGGGCCACAGCGGAAGCGUUCACGUCGCAGCGCCUGUCAGAUUCUGGCGAAUCUGCGAAUUCUGCUGUAUAUCUC as the variant, how does the self-cleavage read?
Answer: Its self-cleavage is 0.09.

Question: With UAACUGGGGGCCACUGCAGAAGCGUUUACGUCGCAGCCCCUGUCAGAUUCUGGUGAAUCUGCGGAUUCUGCUGUAUAUCUC as the variant, how does the self-cleavage read?
Answer: Its self-cleavage is 0.14.

Question: For UAACUGGGGGCCACAGCCGAAGCGCUCACGUCGCAGCCCCUGUCAGAUUCUAGUGAAUCUGCGGAUUCUGCUGUAUAUCCC, which self-cleavage is on record?
Answer: The self-cleavage was 0.07.

Question: Which self-cleavage does the source give for UAACUGGGGGCCACGGCGGAAGCGUUCACGUCGCAGCCCCUGUCAGAUUCUGGUGAAUCUGCGAAUUCUGCUUUAUAUCUC here?
Answer: Its self-cleavage is 0.47.

Question: With UAACUGGGGGCCACUGCAGAAGCGUUCACGUCGCAGCCCCUGUCAGAUUCUGGUGAAGCUGCGAAUUCUGCUGUAUAUCUC as the variant, how does the self-cleavage read?
Answer: The self-cleavage was 0.49.

Question: For UAACUGGGGGCCACUGCAGAAGCGUUCACGUCGCAGCCCCUGUCAGUUUCUGGUGAACCUGCGAAUUCUGCUGUAUAUCUC, which self-cleavage is on record?
Answer: The self-cleavage was 0.23.

Question: For UAACUGGGGGCCUCAGCAGAAGCGUUCACGUCGCAGCCCCUGUCAGAUUCUGGUGAAACUGCGAAUUCUGCUGUAUAUCUC, which self-cleavage is on record?
Answer: Its self-cleavage is 0.9.

Question: Which self-cleavage does the source give for UAACUGGGGGCCGCAGCAGAAGCGUUCACGUCGCAGCCCCUGUCAGAUUCUGGUGAAUCUGCGAAUUCUGCUGCAUAUCUC here?
Answer: The self-cleavage was 0.88.

Question: With UAACUGGGGGCCACUGCAGUAGCGUUCACGUCGCAGCCCCUGUCAGACUCUGGUGAAUCUGCGAAUUCUGCUGUAUAUCUC as the variant, how does the self-cleavage read?
Answer: Its self-cleavage is 0.08.

Question: Which self-cleavage does the source give for UAACUGGGGGCCACGGCAGAAGCGUUCACGUCGCAGCCCCCGACAGAUUCUGGUGAAUCUGCGAACUCUGCUGUAUAUCUC here?
Answer: Its self-cleavage is 0.26.

Question: For UAACUGGGGGCCUCAGCAGAAGCGUUCACGUCGCAGCCCCAGUCAGAUUCUGGUGAGUCUGCGAAUUCUGCAGUAUAUCUC, which self-cleavage is on record?
Answer: Its self-cleavage is 0.22.

Question: With UAACUGGGGGCCACGGCAGAAGCGUUCACGUCGCAGCCCCUGUCGGAUUCUGGUGAAUCCGCGAAUUCAGCUGUUUAUCUC as the variant, how does the self-cleavage read?
Answer: Its self-cleavage is 0.31.

Question: Which self-cleavage does the source give for UAACUGGGGGCCUCAGCAGAGGCGUUCACGUCGCAGCCCCUGUCAGCUUCUGAUGAAUCUGCGAAUUCUGCUGUGUAUCUC here?
Answer: The self-cleavage was 0.12.

Question: For UAACUGGGGGCCACGGCAGAAGCGUUCGCGUCGCGGCCCCAGUUAGAUUCUGGUGAAUCUGCGAAUUCUGCUGUAUAUCUC, which self-cleavage is on record?
Answer: The self-cleavage was 0.11.

Question: Which self-cleavage does the source give for UAACUGGGGGCCACGGCAGAAGCGUUCUCGUCGCAGCCCCUGUCAGAUUCUGGUGAGUCUGCGAAUUCUGCUGUAUAUGUC here?
Answer: Its self-cleavage is 0.92.

Question: For UAACUGGGGGCCACGGCAGGAGCGUUCACGUCGCAGCCCCUGUCAGAUUCUGGUGAAUCUGCGAAUUCUGCUGUUUAUCUC, which self-cleavage is on record?
Answer: Its self-cleavage is 0.54.

Question: With UAACUGGGGGCCACGGCAGGAGCGUUCACGUCGCAGCCCCUGUCAGAUUCUGGUGAAUCUGCGAAUUCUGCUGUAUGUCUC as the variant, how does the self-cleavage read?
Answer: Its self-cleavage is 1.14.

Question: Which self-cleavage does the source give for UAACUGGGGGCCACGGCAGUAGCGUUCACGUCGCAGCCCCUGUCAGAUCCUGGUGAAUCUGCGAAUUCUGCUGUAUAUCUC here?
Answer: The self-cleavage was 0.12.

Source: the RNAGym collection of RNA variant scans (doi:10.1093/nar/gkz1192)
